At least one read-out could not be matched to a standard name with certainty.
Tested on: Gram Negative
Experiment: Surface Antimicrobial Kill Testing Method, activity normalized to triclosan internal standard
Type: cell-based
Method: Inoculum is prepared by streaking microorganism onto a Tryptic Soy Agar (TSA) plate and incubating for 24 h at 33° C. Plated bacteria is resuspended in saline until the transmittance percentage falls within the accepted range for ˜10^8 cfu/mL. For K. pneumonia (Kp) and P. aeruginosa (Pa), this is 31.00-33.00% T. For S. aureus (Sa) this is 23.00-25.00% T. A 10× concentration is made by spinning down the prepared inoculum, removing the supernatant saline from the bacterial pellet, then resuspending the pellet in 1/10th of the original volume of saline. The final inoculum is prepared with 5% of “soil” in the form of Fetal Bovine Serum (FBS).
A 18×18 mm sterile glass coverslip is placed into an appropriate container (e.g. petri dish). 20 μL of prepared inoculum is added to the glass coverslip. Inoculum is then air-dried for 30 minutes in a 36° C. incubator. After drying, 40 μL of test sample is added on top of the dried inoculum. This is incubated at room temperature for the desired contact time. 5 mL of neutralizing media (Modified Letheen Broth+Tween+Lecithin (MLBTL)) is added to the coverslip and shaken on an orbital shaker for 5 minutes to ensure proper neutralization and extraction. Viability is then assessed of the neutralized and extracted sample by traditional/alternative microbiological techniques.
The normalized antimicrobial activity reported in the performance examples below was generated from detection time data obtained as described in the Surface Antimicrobial Kill Test Method. To account for day-to-day variability an internal standard was tested with each series. […] Normalized activity is reported following the equation 1 below.
Normalized Activity=(αΔDT−βΔDT)/(γΔDT−βΔDT) equation 1.
where, αΔDT is the average detection time of the antimicrobial compound, and γΔDT is the average detection time of the reference triclosan internal standard, and βΔDT is the average detection time of the background unperturbed bacteria.
Modified amino acids of the present disclosure were tested as aqueous solutions in the Surface Antimicrobial Kill Testing Method above. To prepare test solutions modified amino acids were first dissolved in the appropriate solvent. Second the selected surfactant is added to the mixture. After vortex (1 min, Vortex-2 Genie, vortex speed 8) mixing, the samples were then diluted with […] of reverse osmosis water (RO water, Millipore Direct-Q™, pH 6). The aqueous solution was then vortexed (1 min, Vortex-2 Genie, vortex speed 8), to which the second ½ portion of water is added. The pH of the solution was then adjusted to the target pH using either 1N HCl, Glacial Acetic Acid, or 1N NaOH. The final solution was then vortexed (1 min, Vortex-2 Genie, vortex speed 8). An example batch sheet is provided below in Table 1.
After treatment, microbial growth is referenced and reported to a triclosan sample and unaltered microbes according to the Normalization of Antimicrobial Activity provided above.

[1] = Table 1B: compound 0.5 wt %, DPGME 5 wt %, Surfonic L24-9 1 wt %, rest 0.1M acetic acid buffer pH 4.5, normalized to triclosan (=1)
[2] = Table 2B: compound 0.5 wt %, DPGME 5 wt %, Surfonic L24-9 1 wt %, rest 0.1M acetic acid buffer pH 4.5, normalized to triclosan (=1)

With `N[C@@H](Cc1c[nH]c2ccccc12)C(=O)OCc1ccccc1` [Synthetic Example 2, L-Tryptophan benzyl ester] the “Gram Negative Referenced Microbial Activity” value [1] was ≥2.2.
`CCCCCCCCOC(=O)[C@@H](N)Cc1c[nH]c2ccccc12` [Synthetic Example 3] was tested, and the “Gram Negative Referenced Microbial Activity” value [1] was ≥2.2 and the “Gram Negative Referenced Microbial Activity” value (Table 1B: compound 0.5 wt %, no solvent, no surfactant, 0.1M acetic acid buffer pH 4.5, normalized to triclosan (=1)) was 1.8.
In the case of `CCCCCC(CCC)COC(=O)[C@@H](N)Cc1ccc(O)cc1` (stereo partly shown) [Synthetic Example 7], the “Gram Negative Referenced Microbial Activity” value [2] is reported as 0.8.
For `CCCCCCCCOC(=O)[C@@H](N)Cc1ccc(O)cc1` [Synthetic Example 5], the “Gram Negative Referenced Microbial Activity” value (Performance Table 3: final pH of formula 2, compound 0.5 wt %, Surfonic L24-9 1 wt %, DPGME 5 wt %, water) was ≥3.4, the “Gram Negative Referenced Microbial Activity” value (Performance Table 3: final pH of formula 4.5, compound 0.5 wt %, Surfonic L24-9 1 wt %, DPGME 5 wt %, water) was ≥3.4 and the “Gram Negative Referenced Microbial Activity” value (Performance Table 3: final pH of formula 7, compound 0.5 wt %, Surfonic L24-9 1 wt %, DPGME 5 wt %, water) was 2.13. For the same compound, the “Gram Negative Referenced Microbial Activity” value (Performance Table 3: final pH of formula 9, compound 0.5 wt %, Surfonic L24-9 1 wt %, DPGME 5 wt %, water) was 0.1, the “Gram Negative Referenced Microbial Activity” value (Performance Table 4: Ecosurf EH6 1 wt %, compound 0.5 wt %, DPGME 5 wt %, water, pH 4.5) was ≥2.7 and the “Gram Negative Referenced Microbial Activity” value (Performance Table 4: Miranol Ultra 32 1 wt %, compound 0.5 wt %, DPGME 5 wt %, water, pH 4.5) was 1.9. The “Gram Negative Referenced Microbial Activity” value (Performance Table 4: Plantaren 2000 1 wt %, compound 0.5 wt %, DPGME 5 wt %, water, pH 4.5) was ≥2.7, the “Gram Negative Referenced Microbial Activity” value (Performance Table 4: SLS (29%) 1 wt %, compound 0.5 wt %, DPGME 5 wt %, water, pH 4.5) was 0.4 and the “Gram Negative Referenced Microbial Activity” value (Performance Table 4: Tween 80 1 wt %, compound 0.5 wt %, DPGME 5 wt %, water, pH 4.5) was ≥2.7. For the same compound, the “Gram Negative Referenced Microbial Activity” value (Performance Table 4: no surfactant, compound 0.5 wt %, DPGME 5 wt %, water, pH 4.5, solution heated to 50 C. before testing) was 0.5^β and the “Gram Negative Referenced Microbial Activity” value [2] was ≥3.4.
For `CC/C=C\CCCCCOC(=O)[C@@H](N)Cc1ccc(O)cc1` [Synthetic Example 6], the “Gram Negative Referenced Microbial Activity” value [2] was 2.3.
With `CCOC(=O)[C@@H](N)Cc1c[nH]c2ccccc12` [Comparative Example C1, reference compound] the “Gram Negative Referenced Microbial Activity” value [1] was 0.2.
In the case of `CCCCCCCCCCCCOC(=O)[C@@H](N)Cc1c[nH]c2ccccc12` [Synthetic Example 4], the “Gram Negative Referenced Microbial Activity” value [1] is reported as 0.3.
With `CC(C)(C)OC(=O)[C@@H](N)Cc1c[nH]c2ccccc12` [Synthetic Example 1, L-tryptophan tert-butyl ester] the “Gram Negative Referenced Microbial Activity” value [1] was 1.0.
